Results: PubChem BioAssay AID1956 (SRMLSC, 2009)
The other results are listed elsewhere or left out. Further columns of the screen follow, without active or inactive calls.

Assay: compounds boosting herpes simplex virus growth – fold increase, host cell viability (AID 1956); also: tested in PC3 cells
Settings: HSV replication augmentation in cells; fold increase: measured here: primary screen fold increase 10 uM, at 10 µM, stronger effect = higher value; viability: measured here: host cell viability series, at 25 µM, stronger effect = lower value

SMILES	fold increase	viability [%]
CN1/C(=C\C=C2/C(=O)Oc3ccccc3C2=O)C(C)(C)c2ccccc21	7.78	101
COc1ccc(C2CC(=O)C=C(NNS(=O)(=O)c3ccc(C)cc3)C2)cc1 (stereo not given)	1.32	–
CC(=Nc1cccc(O)c1)c1sc2ccccc2c1O	2.28	79.7
CC(=O)c1sc(N/N=C\c2cccc(Br)c2)nc1C	3.58	–
CN(C)c1ccc(/C=C/c2ccc3c4ccccc4ccc3[n+]2-c2ccccc2)cc1	1.43	2.17
CN1CCc2c(sc(/N=C/c3cccs3)c2C(N)=O)C1	1.4	99
COc1ccc(/C=C/C(=O)C2C(=O)C=C(C)OC2=O)cc1O (stereo not given)	1.51	–
CN1CCC2(CC1)C1CN(C)CC=C1C(C#N)=C(N)C2(C#N)C#N (stereo not given)	1.78	102
COc1ccccc1-[n+]1c(C)cc(/C=C2\Sc3ccccc3N2C)cc1C	4.85	–
CCN1C/C(=C/c2ccc(N3CCOCC3)cc2)C(=O)/C(=C/c2ccc(N3CCOCC3)cc2)C1	3.85	62.8
O=C(CCN1C(=O)C2CC=C(Cl)CC2C1=O)NC1CCCCC1 (stereo not given)	1.35	98.5
Cc1c2ccccc2nc2c(F)c(N(C)C)c(F)c(F)c12	1.41	88.3
Cn1c(=O)c(NCCO)c2c3c(cccc31)C(=O)c1ccccc1-2	15.1	72.8
CCc1cc(CNC(=O)CC2C(=O)NCCN2Cc2c(F)cccc2Cl)on1 (stereo not given)	1.78	95.8
CCOc1ccc(NC2OCC(O)C(O)C2O)c([N+](=O)[O-])c1 (stereo not given)	1.47	83.4
Cc1ccc(N=C2NC(=O)/C(=C/c3cn(C)c4ccccc34)S2)cc1C	3.85	71
O=C(CCCCCNC(=O)c1ccccc1)C[N+](=O)[O-]	1.32	–
COc1cc2cc(CN(Cc3nnnn3Cc3ccco3)C3CCCCC3)c(=O)[nH]c2cc1OC	1.32	93
FC(F)Sc1ccc(NC(=S)NC2CCC(NC(=S)Nc3ccc(SC(F)F)cc3)CC2)cc1 (stereo not given)	1.6	–
C=CCN1C(=O)/C(=C/c2ccc(O)cc2)S/C1=N/c1nccs1	7.27	73.7
C[C@H](NC(=O)OCc1ccccc1)C(=O)NNC(=O)[C@H](Cc1ccccc1)NC(=O)OC(C)(C)C	1.34	94.4
COc1cccc(-c2cc3c(=O)n(-c4ccccc4)c(=S)[nH]c3s2)c1	1.49	–
N#Cc1c(-c2ccc(F)cc2)cc(C2CC2)nc1SCC(=O)c1cccs1	2.52	94.4
O=c1cc(CO)oc(C(Nc2ccccn2)c2ccc(C(F)(F)F)cc2)c1O (stereo not given)	1.1	92.2

SMILES	fold increase	viability [%]
CC(=Nc1ccc(C)cc1)c1sc2ccccc2c1O	2.74	86
CCCN1C=CC(=C/C=C(\C#N)C(=O)OCC)C=C1	2.39	–
CN(C)/C=C1\C=C2C(=O)c3ccccc3N2C1=O	8.56	95.1
NC(=S)Nc1cccc(Cl)c1	1.34	99.3
Cc1c(C(=O)OC2CCC(C)CC2)[nH]c2c1C(=O)CCC2 (stereo not given)	1.36	85.6
COc1ccc(-n2c(Cc3cccn3C)nnc2SCC(=O)Nc2nccs2)cc1	1.33	94.6
CCN(CC)c1ccc(/C=C2\CCC(/C=N/NC(=O)c3ccc(=O)n(C)c3)=C2N2CCOCC2)cc1	1.63	96.7
CCCCN(C(=O)NC(=O)Nc1nc2ccc(OC)cc2s1)S(C)(=O)=O	1.33	98.1
COc1ccc(N=Cc2sc(O)c3ccccc23)cc1	3.07	88.2
O=S(=O)(c1ccc(Cl)nc1)N(Cc1ccccc1)Cc1ccccc1	1.34	94.6
CCN(CC)c1ccc(/C=N/Nc2nc(C)cc(C)n2)cc1	1.49	43.4
CCCN1CC=C2C(C#N)=C(N)C(C#N)(C#N)C(c3cc(OC)ccc3OC)C2C1 (stereo not given)	1.37	87
Cc1ccc(N=C2NC(=O)/C(=C/C=C/c3ccco3)S2)cc1	1.33	89.9
Nc1ncc(Br)cc1N=Cc1ccccc1	1.33	–
CCOc1cc(/C=N\Nc2ccc([N+](=O)[O-])cc2)ccc1OCC(=O)Nc1ccc(C)c(C)c1	1.56	90.8
CCN(CC)S(=O)(=O)c1cc(C(=O)Nc2cccnc2)ccc1Cl	1.47	93.3
Cc1ccccc1Oc1ncccc1C(=O)/C(C#N)=C/N(C)C	1.45	95.4
C=CCn1c(=O)/c(=C2/Sc3ccccc3N2CC)s/c1=C1/C(=O)NN=C1C	1.83	88.6
COc1ccccc1N1C(=O)CC(Nc2ccc(N3CCOCC3)cc2)C1=O (stereo not given)	1.3	–
Cc1ccc(N2C(=O)c3cccc4c([N+](=O)[O-])ccc(c34)C2=O)c2cccnc12	5.23	45.6
CCN(C(=O)CN1CCc2ccccc21)c1c(N)n(Cc2ccccc2)c(=O)[nH]c1=O	1.58	97
O=C(C1=NN(c2ccccc2)C2C(=O)N(c3ccc(Cl)cc3)C(=O)C12)c1ccccc1 (stereo not given)	4.08	94.7
Cc1ccc(S(=O)(=O)N(CC(=O)NCCSC2CCCCC2)c2ccccc2F)cc1	1.51	91.2
O=C(CN1C(=O)C2CCCCC2C1=O)N1CCN(c2ncccn2)CC1 (stereo not given)	1.32	–

SMILES	fold increase	viability [%]
Cc1ccc(-c2c[n+]3c(n2-c2ccccc2)CCC3)cc1	1.32	–
COc1ccc(C2C=C(c3ccc(Br)s3)Nc3ncnn32)cc1OC (stereo not given)	3.36	–
CC(=O)Oc1c(-c2ccco2)oc2ccccc2c1=O	3.37	–
CN1/C(=c2/s/c(=C3/C(=O)N(c4ccccc4)NC3=Nc3ccccc3)n(C)c2=O)C(C)(C)c2ccccc21	1.83	93.8
Cc1ccc(-n2nc3c(c2NC(=O)c2ccc(OC(C)C)cc2)CS(=O)C3)cc1 (stereo not given)	1.32	96.4
CCCCCCN1C=CC=C/C1=C/C=C(C#N)C#N	2.99	–
Cc1nn(-c2cc(N3CCCC3)ccc2[N+](=O)[O-])c(=O)c2ccccc12	1.25	–
COc1cccc(/C=N/NC(=S)Nc2cccc(C(=O)O)c2)c1O	1.34	–
CCN1CCN(c2c(/C=C3\SC(=S)N(Cc4ccco4)C3=O)c(C)c(C#N)c(=O)n2C)CC1	3.54	86.8
COc1ccc(CCNC(=O)CSc2nc3ccccc3o2)cc1OC	1.45	99.6
CCCCC(=O)OCC(=O)Nc1ccc(SC(F)F)cc1	1.37	96.4
Cc1oc(C)c2c(=O)ccc3c(c12)OC(N)=C(C#N)C3c1ccccc1Cl (stereo not given)	1.64	92.3
O=C1OC2(c3ccccc3)C3CCCC2C13	1.46	101
CCc1cccc(Oc2nn[nH]n2)c1	1.39	92.1
CCCCc1cc(=O)oc2cc(OCc3cc(OC)c(OC)c(OC)c3)c(Cl)cc12	1.11	–
CCC(NS(=O)(=O)c1ccc(C)cc1)C(=O)N1CCN(c2ccccn2)CC1 (stereo not given)	1.33	95.4
CCOCCCNC(=S)N1CCCN(c2nc3cc(C)c(C)cc3cc2C#N)CC1	1.53	87
COc1ccc(-c2cc(-c3cccs3)c(C#N)c(SCC(=O)NCc3ccccc3)n2)cc1	1.1	–
O=C(CSc1cnc2ccccc2n1)c1ccc(F)cc1	1.32	–
N=c1c2c(ncn1CCCO)Oc1cc(O)ccc1C2c1ccccc1 (stereo not given)	1.45	92.8
COc1ccc(OCCSc2nnc3c(Cl)cc(Cl)cn23)cc1	1.39	98.4
CN(C)CCCn1c(-c2ccccc2)nc(=S)c2c1CCCC2	1.5	96.9
CCN(CC)CCCOC(=O)c1ccc(OC)cc1O	1.34	98.5
O=C(CSC1c2ccccc2C(=O)N1c1ccccc1)N1CCOCC1 (stereo not given)	1.68	91.5

SMILES	fold increase	viability [%]
CN(C)c1ccc(C2C=C(c3ccc(Cl)cc3OC(F)F)Nc3ncnn32)cc1 (stereo not given)	4.51	46.6
CCOC(=O)CNC(=O)c1sc2ncnc(N3CCc4ccccc4C3)c2c1C	1.34	90.2
O=C(NC1CCCC1)C(c1ccncc1)N(Cc1ccccc1)C(=O)Cc1cccs1 (stereo not given)	1.34	107
C=CCn1c(N)c(-c2nc3ccccc3n2C)sc1=S	1.36	90.1
O=S(=O)(Nc1nc2ccccc2nc1-[n+]1cccc(N=C([O-])c2ccccc2Cl)c1)c1ccccc1	3	87.1
Cc1ccc(C(=O)CSc2nc(-c3ccccc3)ccc2C#N)cc1	3.31	90
CC1Oc2ccccc2N(CC(=O)Nc2ccc3c(c2)OCO3)C1=O (stereo not given)	1.34	91.2
CCCc1c(C(=O)O)cnn1-c1ccc(Cl)cc1	1.39	99.2
COc1ccc(/C=N\NC(=S)SCN2C(=O)C3CCC(C)(C2=O)C3(C)C)cc1 (stereo not given)	1.04	–
Cc1cc(CNC(=O)[C@H]2C[C@@H]2[C@H](NP(=O)(c2ccccc2)c2ccccc2)c2ccccc2)nn1C	1.43	104
COC(=O)CN1C(=O)S/C(=C/c2ccc(N3CCCCC3)o2)C1=O	1.64	94.3
Cc1n[nH]c(C)c1N1C(=O)c2cccc3c(N4CCCCCC4)ccc(c23)C1=O	7.74	86.6
Nc1cnccc1C(=O)O	1.49	–
O=C(NCc1ccc2c(c1)OCO2)C1CC(c2ccccc2O)=NO1 (stereo not given)	1.37	96.6
Cc1nn2c(-c3cccc(NC(=O)CSc4nc5ccccc5o4)c3)nnc2c2ccccc12	1	–
Cc1cc(NC(=O)/C(C#N)=C/c2ccco2)n(-c2ccccc2)n1	1.37	104
CCN1/C(=C/c2ccc3ccc(C)cc3[n+]2CC)Sc2ccccc21	5.71	45.2
N#CC1=C(N)C(C#N)(C#N)[C@H](c2ccoc2)[C@H]2CN(Cc3ccccc3)CC=C12	2.27	–
C=CCN1C(=O)/C(=C\C=C2\N(C)c3ccccc3C2(C)C)SC1=S	7.61	99.2
O=c1oc2ccc(Br)cc2cc1-c1nc2ccccc2o1	2.49	95.1
CCOC(=O)c1cnn(-c2ccc(NS(=O)(=O)c3ccc(Cl)cc3)cc2)c1C(F)(F)F	1.34	98.5
C=CC[n+]1c(/C=C2\C=Cc3cc(C)ccc3N2CC)ccc2ccccc21	1.61	30.4
O=[N+]([O-])c1ccc(N2CCN(S(=O)(=O)c3ccc(Cl)cc3)CC2)cc1NCc1cccnc1	1.14	–
